According to the supplement of paper PMC11417369:
± gives the standard deviation of the averaged measurements. This is one part of the list.

Test system: PfAP2-I AP2 domain 3 (GST-tagged)
Experiment: gcPBM binding intensity (ln(normalized median fluorescence intensity)); higher = stronger DNA binding
Summary of the method: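 Binding intensity is defined as the maximum Masliner-normalised natural-log median intensity across replicate spots for either probe orientation. It was measured on an Agilent 4 × 180k array of primer-extended double-stranded 36-bp intergenic genomic probes and negative controls, to which GST-tagged P. falciparum DNA-binding domains made in E. coli were applied for 1 h in 1× PBS with 1% milk, 0.2 mg/ml BSA, 0.5% salmon testes DNA and 0.03% Triton X-100. Detection was by Alexa488 anti-GST antibody and scanning at 488 nm.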

Sequence	gcPBM binding intensity (ln)
AAAAAAAAAAAAAAATGTACAAATATATACATATAT [XGTACX_site935]	8.06 ± 0.28
ATATAATTATAAAATAAACACACATATATATTTATA [CACACA_site8039]	7.7 ± 0.43
TAATGTTACACAAACTTTTCATTCTTTTTAATAAAT [TGCATGCA_negctrl_site331]	7.53 ± 0.59
ATATATATATATATATGTACATAGAGAAGTATCTTT [XGTACX_site4737]	9.44 ± 0.69
TTATTTATTTATAATTGTACATTGCAAATGAATTTA [XGTACX_site4083]	7.69 ± 0.52
AACATTTTAAATTATACACACATTTTGAATATATAT [CACACA_site3470]	7.78 ± 0.53
TATACACCCAGACACACACACACACCCAAAAAAAAA [CACACA_site497]	8.51 ± 0.42
TGTTGTTGTAATTATTGTACGTTATGCGATTATTAT [XGTACX_site7005]	7.91 ± 0.46
AAAAAAAAAAAAAAAAGTACTCTATAAGTAACATTT [XGTACX_site6973]	8.52 ± 0.5
ATTTTTTTGTTATTGTTGAAAAGATGGTTCTTTTTT [CACACA_negctrl_site1346]	7.56 ± 0.62
AATTTCTTATTTTGTACACACAATAAATATTCACAT [CACACA_site1612]	8.09 ± 0.59
AAGTTAGGATAGATCCAATAATTTTTAGTTTCTCTT [GTGCAC_negctrl_site272]	7.14 ± 0.71
ATGAACATATTTTTTTGTACTTATGAAAATATGTTA [XGTACX_site5996]	7.62 ± 0.46
TAGTAGTTATCATTAACATGCAATAATATTATTTAA [TGCATGCA_site178]	7.66 ± 0.55
AAAATAAATAAATACACACACACGAATATTTATATA [CACACA_site6892]	7.7 ± 0.4
ATTATTTCAATTTTTTTTGTTTTTAAAAAAAAAAAT [CACACA_negctrl_site1387]	7.63 ± 0.32
ATTATAAAAATATCGTGTACATATTTTTTAAAATAA [XGTACX_site5072]	7.93 ± 0.3
AAAAAAAAAAAAAAAAGTACACATCATTTTATGAAA [XGTACX_site1402]	8.83 ± 0.41
GAAAACAAAATGGTAACACACAAATGTAAATAGTAT [CACACA_site2113]	7.97 ± 0.88
TATATATAGAAACACACACACATATATATATATTTT [CACACA_site2540]	7.74 ± 0.46
TATATATTATAAAATAGTACACAGAATTTAAATATA [XGTACX_site100]	7.86 ± 0.48
TCTTTTAAACAGTACACACACACATATATATATATA [CACACA_site924]	9.57 ± 0.11

Sequence	gcPBM binding intensity (ln)
AATATTTTTTTATAAACACACATATAAATAAATATA [CACACA_site7622]	7.66 ± 0.57
TTGTTGATTGTTATTTATCATTAGATGTAAAATATG [CACACA_negctrl_site927]	7.55 ± 0.38
GGGCATATAATATAAAGTACAGGACTATAAAAATAT [XGTACX_site4481]	7.93 ± 0.33
TATTATATGTATTGCACACCTTCAACAACTACTTCT [CACACA_site655]	10.3 ± 0.41
ATATCTATAATAAACACACACATATACCTATAGGTA [CACACA_site7596]	7.77 ± 0.65
ATTGTGCACTTATATGCACACATTTTAGTTTTTTTT [CACACA_site2028]	11.4 ± 0.69
TTTATTTATCTGAACACATGCAGACAAATAACATAT [TGCATGCA_site929]	7.75 ± 0.66
TATCACATATTATGATGTACAAGGATTCTGACTAAT [XGTACX_site1196]	7.58 ± 0.38
CATAAACTTTATAACACACACTTATAAATATAAATA [CACACA_site6646]	7.89 ± 0.35
ATTATATATAAACACACACACATGCATGCACATATA [CACACA_site4237]	8.93 ± 0.59
GTTATAAAATATGGCACACAAAATGTAAGTAAATGA [CACACA_site1458]	8.73 ± 0.18
ATATATTTTGTTATGGTGCGTAAGAAATATATTCTT [GTGCAC_site9825]	10.3 ± 0.47
GATCTTTAAATTTATTGTACATAAATGTATATGTTA [XGTACX_site1107]	7.81 ± 0.49
TTTTTTTATATTTTTAGTACACATTGGTATATATAT [XGTACX_site4114]	8.49 ± 0.29
TATTTTTTTAAAAATACACACATAAAATCATGAAAA [CACACA_site1085]	7.84 ± 0.61
ATATATATATGTCAAAGTACTAAAAATATATACATA [XGTACX_site3397]	9.025 ± 0.035
CATAGAATAATTTATTGTACGTGCATGCTATTTTTT [XGTACX_site8984]	8.37 ± 0.66
AAAATAAATTTTTATGTTATATATACAATTTCTCTA [CACACA_negctrl_site1760]	7.32 ± 0.62
AATGCTATCTTCTTATTTTTCATACACAACATGAAC [CACACA_negctrl_site1809]	8.1 ± 0.73
TATAATATTTATATAACACACATATATATTTATTTA [CACACA_site280]	7.58 ± 0.28
TATACATTTTTATAAAGTACACAAAAATAAATATAA [XGTACX_site1647]	7.89 ± 0.27
ATTAAATATATGATGTGTACATATTCGTGTATGTTT [XGTACX_site2141]	7.75 ± 0.59
